# Test results published in PubChem BioAssay AID1671193 (National Center for Advancing Translational Sciences (NCATS), 2021).
# Where “and” joins values, the source holds several entries; their conditions need not be identical. Identical values can stand only once. The campaign covered roughly 150,000 compounds. About 180 (0.12%) were called active. This list was built around the results that the source calls inconclusive (neither active nor inactive); the mix of calls is not that of the screen. Calls come from the whole dose curve; as a rule, active = well fitted cell-killing curve with a large enough effect; inconclusive = small, poorly fitted or top-dose-only effect, or effect the other way; inactive = flat fitted curve, though single readings scatter. Where the call is inconclusive, the potency comes from a doubtful curve fit.
# Assay: GF-AFC viability counterscreen for inhibitors of alpha-synuclein gene (SNCA) expression; note: nearly all actives have a fitted effect of over 30% in size;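 for activity change, negative = cytotoxicity: 0% = DMSO-treated cells and -100% = medium-only wells without cells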
# Conditions: HEK-293-SNCA-luc viability, GF-AFC fluorescence, 24 h; activity change, negative = cytotoxicity: at 57.1 µM (top of the series) unless noted
# How it was run: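 Cytotoxicity counterscreen: after 24 h compound treatment of genome-edited SNCA-luciferase HEK-293 cells, live-cell protease substrate GF-AFC read by fluorescence after 30 min; activity scaled between DMSO (0%) and medium-only (-100%), curves Hill-fitted.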
# Potency is the fitted concentration of half-maximal effect; tags give direction and shape of the fitted curve.
SMILES,Potency,"activity change, negative = cytotoxicity"
CCC(C(=O)Nc1c(C)cc(C)cc1C)n1c(=O)c(-c2ccccc2NC(C)=O)nc2ccccc21 (stereo unspecified),"inconclusive: 5.01 µM [cytotoxic, full curve, poor fit]",
CN(Cc1ccccc1)S(=O)(=O)c1cc(Br)cc2c1N(C(=O)C1CC1)CC2,,inactive: 1.11%
Cc1ccc(C)c(Cn2c(-c3cccs3)nc3ccccc32)c1,"inconclusive: 35.5 µM [cytotoxic, single point]",
Cc1c(-c2ccc(F)cc2)[nH]c2ccc(CNC(=O)c3cnn(C)c3)cc12,,inactive: -13.2%
COc1ccc(-c2nnc(SCC(=O)Nc3ccc(C(C)C)cc3)nc2-c2ccc(OC)c(OC)c2)cc1OC,"inconclusive: 0.398 µM [rising, full curve, poor fit]",
COc1ccc(NC(=O)CC2C(=O)N(c3cccc(C)c3)C(=O)N2C2CCCCC2)cc1 (stereo unspecified),"inconclusive: 12.6 µM [cytotoxic, partial curve, poor fit]",
Cc1nc2nc(SCC(=O)NC3CCC(C)CC3)nn2c(C)c1Cc1ccccc1 (stereo unspecified),"inconclusive: 2.51 µM [rising, full curve, poor fit]",
COc1ccc(NC(=O)c2cc3n(n2)CC(c2ccc4c(c2)OCO4)OC3)cc1OC (stereo unspecified),,inactive: -3.55%
O=C(CN1C(=O)COc2ccc(C(=O)COc3ccccc3Cl)cc21)NC1CCCCC1,"inconclusive: 17.8 µM [cytotoxic, partial curve, poor fit]",
CN(C)CCCN=c1c2ccccc2n(C)c2[nH]c(=O)n(C)c(=O)c12,"inconclusive: 19.2 µM [cytotoxic, partial curve]",
Cc1ccccc1C(=O)N1CCC(C(=O)N2CCC3(CC2)CC(=O)Nc2ccccc2O3)CC1,,inactive: -4.23%
Cc1ccc(-c2cn(-c3cccc(Cl)c3)c(S(=O)(=O)CC(=O)Nc3cccc(C)c3)n2)cc1,"inconclusive: 20 µM [cytotoxic, single point]",
Cc1noc(C)c1CC(=O)N1CCCC(Cc2noc(-c3cccnc3)n2)C1 (stereo unspecified),"inconclusive: 39.8 µM [cytotoxic, single point]",
O=C(NC1CC1)[C@@H]1C[C@H](Oc2cccnc2)CN1C(=O)c1nccc2ccccc12,"inconclusive: 5.01 µM [cytotoxic, single point]",
O=C(C1COc2ccccc2O1)N1CCc2onc(-c3cccc(F)c3)c2C1 (stereo unspecified),,inactive: 10.4%
CCCN1CCc2[nH]cnc2C12CCN(Cc1ccc(C3CCCCO3)o1)CC2 (stereo unspecified),,inactive: -10.2%
Nc1nc(NCc2ccc(Cl)cc2Cl)cc(C2CC(O)C2)n1 (stereo unspecified),,inactive: -22.8%
O=C(NCCc1noc(-c2ccccc2)n1)C1NCCc2[nH]cnc21 (stereo unspecified),,inactive: -13.6%
COc1cccc(Cn2c(=O)c(-c3cn(C)c4ccccc34)nc3cnc(OC)nc32)c1,"inconclusive: 3.98 µM [rising, partial curve]",
CCNc1ncc2nc(-c3ccccc3)c(=O)n(CCC#N)c2n1,"inconclusive: 14.1 µM [rising, partial curve, poor fit]",
Cc1ncc(-c2ccnc(Nc3ccc(S(C)(=O)=O)cc3)n2)n1C(C)C,"inconclusive: 17.1 µM [cytotoxic, partial curve, poor fit] and inconclusive: 21.2 nM [cytotoxic, full curve, poor fit]",

SMILES,Potency,"activity change, negative = cytotoxicity"
CCCCOC(=O)CSc1nnc(-c2ccc(C)cc2)o1,,inactive: 10.5%
CC(C)c1ccc(C2c3c(-c4ccccc4O)n[nH]c3C(=O)N2Cc2ccncc2)cc1 (stereo unspecified),"inconclusive: 20 µM [cytotoxic, partial curve, poor fit]",
CC(C)Cn1c(=O)c2ccccc2n2c(CCC(=O)N3CCN(c4ccccc4)CC3)nnc12,"inconclusive: 2.82 µM [cytotoxic, full curve, poor fit]",
O=C(c1ccnc2ccccc12)N1CCC2(CC1)Nc1ccccc1NC2=O,"inconclusive: 28.2 µM [cytotoxic, single point]",
Cc1cccc(CC(=O)N2CCCN(c3cc(-c4ccc(Br)cc4)[nH]n3)CC2)c1,,inactive: -7.62%
Cc1nn(-c2ccc(C(C)(C)C)cc2)c(C)c1[C@@H]1C=C[C@@H](NC(=O)Nc2ccccc2)C1,"inconclusive: 11.2 µM [cytotoxic, full curve, poor fit]",
CCOC(=O)c1ccc(N2C(=O)c3n[nH]c(C)c3C2c2ccc(OCC)cc2)cc1 (stereo unspecified),"inconclusive: 39.8 µM [cytotoxic, partial curve, poor fit]",
CC(C)n1cc(C(=O)N2CC[C@H](N3CCOCC3)[C@H](CCC(=O)O)C2)cn1,"inconclusive: 8.91 µM [cytotoxic, single point]",
COc1cccc(Cn2c(CNS(=O)(=O)c3ccc(C(C)(C)C)cc3)nc3cccnc32)c1,"inconclusive: 22.4 µM [cytotoxic, single point]",
COc1cc(F)cc(-c2cccc(CCOc3cnc4c(ccn4CC(=O)O)c3)c2)c1,,inactive: -1.03% [at 87.6 µM]
O=C(c1cnc2c(O)cccn2c1=O)N1CCC2(CC1)OCCCC2O (stereo unspecified),"inconclusive: 39.8 µM [rising, single point]",
Cc1ccc(NC(=O)N2CCC3(CC2)C(=O)N(CC(=O)N2CCCC2)CN3c2ccccc2)cc1,,inactive: -2.64%
CN1C(C(=O)Nc2ccc(F)cc2F)=CC(c2ccco2)=NS1(=O)=O,"inconclusive: 25.1 µM [rising, single point]",
O=C(CSc1c2c(nc3ccc(Cl)cc13)CCCC2)N1CCN(c2cccc(Cl)c2)CC1,"inconclusive: 39.8 µM [cytotoxic, single point]",
CCN1C(=O)Cc2ccccc2C1C(=O)NCc1cccc(F)c1 (stereo unspecified),,inactive: -8.76%
CCn1ccc2oc(C)c(C(=O)N3CCN(c4cccc(C)c4C)CC3)c2c1=O,,inactive: -5.41%
COc1ccc(-c2nccn3cc(C(=O)NCCN4CCCCC4)nc23)cc1,,inactive: -24.5%
CN(C)C(=O)NC1CCN(c2nccc(Nc3ccccc3Cl)n2)CC1,,inactive: 4.3%
CC(C(N)=O)N1CCn2nc(CCC(=O)N3CCOCC3)cc2C1 (stereo unspecified),"inconclusive: 0.794 µM [rising, full curve, poor fit]",
NCCO[C@H]1C[C@@H](O)C12CCN(Cc1c(Cl)cccc1Cl)CC2,"inconclusive: 20 µM [cytotoxic, partial curve, poor fit]",
